Measurements: publication PMC9911399, “Two distinct binding modes provide the RNA-binding protein RbFox with extraordinary sequence specificity”
Changes are numbered by the printed parent chain; changes in the protein carry UniProt numbers. This is one part of the list.

T1: RBFOX1 RRM RbFoxmut (Fox-RRM*) (Homo sapiens, UniProt Q9NWB1 109-208, R118D;E147R;N151S;E152T)
T1 sequence: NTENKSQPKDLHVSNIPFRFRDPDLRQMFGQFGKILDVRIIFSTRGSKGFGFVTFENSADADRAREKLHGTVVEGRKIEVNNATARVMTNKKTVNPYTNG

B1: GUGUGGC (DNA:RNA)
RNA: GGGAGACCGGAAUUCAGAUUGUCCGUGUGGCUUAAAUCCCGUCGUAGCCACCA
DNA 1: CAATCTGAATTCCGGTCTCCC
DNA 2: TGGTGGCTACGACGGGATT
B2: GGGAUUC (DNA:RNA)
RNA: B1 RNA with U26G, U28A, G29U, G30U
DNA 1: CAATCTGAATTCCGGTCTCCC
DNA 2: TGGTGGCTACGACGGGATT
B3: CACCUUC (DNA:RNA)
RNA: B1 RNA with G25C, U26A, G27C, U28C, G29U, G30U
DNA 1: CAATCTGAATTCCGGTCTCCC
DNA 2: TGGTGGCTACGACGGGATT
B4: GCGCGUG (DNA:RNA)
RNA: B1 RNA with U26C, U28C, G30U, C31G
DNA 1: CAATCTGAATTCCGGTCTCCC
DNA 2: TGGTGGCTACGACGGGATT
B5: ACAAGUG (DNA:RNA)
RNA: B1 RNA with G25A, U26C, G27A, U28A, G30U, C31G
DNA 1: CAATCTGAATTCCGGTCTCCC
DNA 2: TGGTGGCTACGACGGGATT
B6: UAGAAUC (DNA:RNA)
RNA: B1 RNA with G25U, U26A, U28A, G29A, G30U
DNA 1: CAATCTGAATTCCGGTCTCCC
DNA 2: TGGTGGCTACGACGGGATT
B7: GUACUAU (DNA:RNA)
RNA: B1 RNA with G27A, U28C, G29U, G30A, C31U
DNA 1: CAATCTGAATTCCGGTCTCCC
DNA 2: TGGTGGCTACGACGGGATT
B8: AAAGCAC (DNA:RNA)
RNA: B1 RNA with G25A, U26A, G27A, U28G, G29C, G30A
DNA 1: CAATCTGAATTCCGGTCTCCC
DNA 2: TGGTGGCTACGACGGGATT
B9: GGCGAAG (DNA:RNA)
RNA: B1 RNA with U26G, G27C, U28G, G29A, G30A, C31G
DNA 1: CAATCTGAATTCCGGTCTCCC
DNA 2: TGGTGGCTACGACGGGATT
B10: UACGUCU (DNA:RNA)
RNA: GGGAGACCGGAAUUCAGAUUGUCCUACGUCUUUAAAUCCCGUCGUAGCCACCA
DNA 1: CAATCTGAATTCCGGTCTCCC
DNA 2: TGGTGGCTACGACGGGATT
B11: CGGUCCA (DNA:RNA)
RNA: B1 RNA with G25C, U26G, G29C, G30C, C31A
DNA 1: CAATCTGAATTCCGGTCTCCC
DNA 2: TGGTGGCTACGACGGGATT
B12: ACUACGG (DNA:RNA)
RNA: B1 RNA with G25A, U26C, G27U, U28A, G29C, C31G
DNA 1: CAATCTGAATTCCGGTCTCCC
DNA 2: TGGTGGCTACGACGGGATT
B13: CCUGUAA (DNA:RNA)
RNA: B10 RNA with U25C, A26C, C27U, C30A, U31A
DNA 1: CAATCTGAATTCCGGTCTCCC
DNA 2: TGGTGGCTACGACGGGATT
B14: UCCUCCG (DNA:RNA)
RNA: B10 RNA with A26C, G28U, U29C, U31G
DNA 1: CAATCTGAATTCCGGTCTCCC
DNA 2: TGGTGGCTACGACGGGATT
B15: GGUACUG (DNA:RNA)
RNA: B1 RNA with U26G, G27U, U28A, G29C, G30U, C31G
DNA 1: CAATCTGAATTCCGGTCTCCC
DNA 2: TGGTGGCTACGACGGGATT
B16: GUUCAGU (DNA:RNA)
RNA: B1 RNA with G27U, U28C, G29A, C31U
DNA 1: CAATCTGAATTCCGGTCTCCC
DNA 2: TGGTGGCTACGACGGGATT
B17: UGCUAAC (DNA:RNA)
RNA: B1 RNA with G25U, U26G, G27C, G29A, G30A
DNA 1: CAATCTGAATTCCGGTCTCCC
DNA 2: TGGTGGCTACGACGGGATT
B18: AUUCGUU (DNA:RNA)
RNA: B1 RNA with G25A, G27U, U28C, G30U, C31U
DNA 1: CAATCTGAATTCCGGTCTCCC
DNA 2: TGGTGGCTACGACGGGATT
B19: UGGGGUG (DNA:RNA)
RNA: B1 RNA with G25U, U26G, U28G, G30U, C31G
DNA 1: CAATCTGAATTCCGGTCTCCC
DNA 2: TGGTGGCTACGACGGGATT
B20: CCCGGAU (DNA:RNA)
RNA: B10 RNA with U25C, A26C, U29G, C30A
DNA 1: CAATCTGAATTCCGGTCTCCC
DNA 2: TGGTGGCTACGACGGGATT

Molecular target: T1, RBFOX1 RRM RbFoxmut (Fox-RRM*)
Test: EMSA; HiTS-Eq, 1 nM pool, 10 min; buffer printed only for the single-RNA assays: 10 mM Tris pH 7.5, 150 mM NaCl, 3.4 mM EDTA, 0.001% NP-40, 30 C
Details: tags: His6 N-terminal (pET28a); label: 5' 32P
Procedure, shortened: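 A pool of RNA with 7 randomized nucleotides, 5′-radiolabelled and with DNA-annealed flanks, was equilibrated at 1 nM for 10 min in 50 µL with purified RbFox RRM, wild type or mutant, across increasing protein concentrations. Free RNA was separated by 8% native PAGE, excised, reverse-transcribed, barcoded by PCR and sequenced. Relative association constants were obtained from read-count changes of each RNA species versus the control reaction and normalised to the cognate motif.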

Binder	binding signal
B1	0.132 KA relative to UGCAUGU
B2	0.138 KA relative to UGCAUGU
B3	0.0518 KA relative to UGCAUGU
B4	0.149 KA relative to UGCAUGU
B5	0.127 KA relative to UGCAUGU
B6	0.125 KA relative to UGCAUGU
B7	0.104 KA relative to UGCAUGU
B8	0.0825 KA relative to UGCAUGU
B9	0.0667 KA relative to UGCAUGU
B10	0.0736 KA relative to UGCAUGU
B11	0.0698 KA relative to UGCAUGU
B12	0.0692 KA relative to UGCAUGU
B13	0.126 KA relative to UGCAUGU
B14	0.0609 KA relative to UGCAUGU
B15	0.112 KA relative to UGCAUGU
B16	0.0882 KA relative to UGCAUGU
B17	0.0992 KA relative to UGCAUGU
B18	0.134 KA relative to UGCAUGU
B19	0.38 KA relative to UGCAUGU
B20	0.0433 KA relative to UGCAUGU
